Laboratory results taken from publication PMC4336329 (PLoS ONE, 2015).
Hit rate of the full screen: of about 310,000 compounds, about 2,200 (0.71%) showed an effect of 50% or more. The effect is printed as a negative number. The list shows a part of the results.

Target: human ether-à-go-go-related gene (hERG) potassium channel (human, UniProt Q12809)
Assay: primary screen, population patch clamp on CHO cells stably expressing hERG

Sequence of human ether-à-go-go-related gene (hERG) potassium channel (Q12809 whole entry, looked up): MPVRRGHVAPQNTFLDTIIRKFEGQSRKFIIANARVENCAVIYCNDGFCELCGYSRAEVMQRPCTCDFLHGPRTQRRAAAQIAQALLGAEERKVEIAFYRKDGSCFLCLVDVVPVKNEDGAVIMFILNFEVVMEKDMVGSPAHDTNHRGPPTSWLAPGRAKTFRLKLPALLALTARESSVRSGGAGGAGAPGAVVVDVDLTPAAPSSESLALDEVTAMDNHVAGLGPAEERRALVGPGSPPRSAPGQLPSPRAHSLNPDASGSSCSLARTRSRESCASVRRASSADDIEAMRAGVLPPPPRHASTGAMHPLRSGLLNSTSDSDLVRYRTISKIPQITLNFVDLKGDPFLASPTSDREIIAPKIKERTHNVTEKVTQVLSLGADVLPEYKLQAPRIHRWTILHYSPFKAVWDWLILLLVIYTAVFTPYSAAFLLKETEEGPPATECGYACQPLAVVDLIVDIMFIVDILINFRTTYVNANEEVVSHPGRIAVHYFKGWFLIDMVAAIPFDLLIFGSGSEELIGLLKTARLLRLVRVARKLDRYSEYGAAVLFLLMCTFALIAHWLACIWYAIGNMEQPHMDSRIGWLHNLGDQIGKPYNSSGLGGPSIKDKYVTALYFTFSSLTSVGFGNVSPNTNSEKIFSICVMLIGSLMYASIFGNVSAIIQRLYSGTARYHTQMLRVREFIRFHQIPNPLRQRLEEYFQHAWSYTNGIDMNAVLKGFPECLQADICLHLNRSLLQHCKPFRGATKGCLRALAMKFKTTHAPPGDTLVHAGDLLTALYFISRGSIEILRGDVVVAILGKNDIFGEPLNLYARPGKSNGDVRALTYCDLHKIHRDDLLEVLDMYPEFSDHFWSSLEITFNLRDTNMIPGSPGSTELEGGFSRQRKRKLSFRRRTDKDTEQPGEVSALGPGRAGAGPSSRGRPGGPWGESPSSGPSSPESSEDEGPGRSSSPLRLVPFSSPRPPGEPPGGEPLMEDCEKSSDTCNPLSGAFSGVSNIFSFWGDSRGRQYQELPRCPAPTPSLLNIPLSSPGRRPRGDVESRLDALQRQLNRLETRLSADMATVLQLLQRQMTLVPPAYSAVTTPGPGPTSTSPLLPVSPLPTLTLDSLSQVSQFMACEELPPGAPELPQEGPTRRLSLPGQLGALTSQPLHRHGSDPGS

Structure (SMILES)	hERG current change (%, negative = inhibition) at 1uM
Cc1ccc(NC(=O)CSc2nnc(Cn3c(=O)sc4ccccc43)n2C)cc1Cl	6.75%
Cc1ccc(NC(=S)N(CCCN2CCOCC2)Cc2cccs2)c(C)c1	5.6%
COC(=O)c1ccc(NC(=O)CSc2nc3ncccc3[nH]2)cc1	10.5%
Cn1c(=O)cc(OCCCC(=O)N2CCN(c3ccccc3)CC2)c2ccccc21	-18.6%
C[C@]12CCC[C@H](O1)[C@H]([C@@H](O)c1ccccc1)O2	16.5%
O=C(N/N=C/c1c(O)ccc2ccccc12)Nc1ccccc1	13.3%
N#Cc1cnc(NCc2ccc(Cl)cc2Cl)nc1	8.08%
CC1CC(C)CN(S(=O)(=O)c2cc3c4c(c2)C(C)C(=O)N4CCC3)C1 (stereo not shown)	17.1%
CC(=O)c1ccc(NC(=O)C2CCCN2S(=O)(=O)c2cccs2)cc1 (stereo not shown)	16.1%
O=C(NCc1cccs1)c1noc2c1CCCCC2	1.97%
COc1ccccc1NC(=O)N1CCn2c(nc3ccccc32)C1	-5.19%
COC(=O)C1=C(c2ccc(F)cc2F)C[C@@H]2CC[C@H]1N2C(=O)N1CCCC1	12%
N#C/C(=C\c1ccc(O)c(O)c1)C(=O)N1CCCC1	14.9%
O=C(CCC1CCCC1)NNC(=O)c1cc2ccccc2cc1O	5.02%
NNC(=O)c1n[nH]c2c1CC(C1CCCCC1)CC2 (stereo not shown)	15.4%
CCCOc1ccc(Cl)cc1Nc1nc(NCCO)nc(N2CCCC2)n1	19.4%
CC1CCCCC1NC(=O)C1CCC(CNS(=O)(=O)c2ccccc2)CC1 (stereo not shown)	15.7%
CCOC(=O)c1ccc(S(=O)(=O)N2CCN(c3ccccn3)CC2)cc1	11.1%
Cc1cccc(NC(=S)N2CCCC2)c1	16.9%
Clc1nc(-c2n[nH]nc2Cl)n[nH]1	9.59%
NS(=O)(=O)OCc1ccc(C(F)(F)F)cc1	5.62%
O=C(O)C(Cc1c[nH]c2ccccc12)N1Cc2ccccc2C1=O (stereo not shown)	8.38%
S=C(NCc1ccco1)Nc1ccccc1	10.3%

Structure (SMILES)	hERG current change (%, negative = inhibition) at 1uM
Cc1cccc(N2CCN(C(=O)CCCn3c(=S)[nH]c4cc5c(cc4c3=O)OCO5)CC2)c1C	11.7%
COc1ccc(OC)c(NC(=O)CNC(=O)Cn2cnc3sc(C)cc3c2=O)c1	9.84%
O=c1[nH]c(=O)n(Cc2ccco2)c(O)c1C=NC1CC1	8.68%
O=C(COc1c(Cl)cccc1Cl)Nc1ccccc1N1CCCC1	6.21%
O=C(COC(=O)c1c(F)cccc1F)Nc1ccccc1OC(F)F	9.57%
O=C(Nc1ccccc1N1CCCCC1)c1ncoc1-c1ccc(F)cc1	13.1%
Cc1ccc(S(=O)(=O)N(C)C)cc1NC(=O)/C=C/c1cccs1	5.45%
COc1cccc(-c2nnc(NC(=O)c3ccc4ncsc4c3)o2)c1	0.153%
CC(=O)c1cnc(SCCN2C(=O)c3ccccc3C2=O)nc1C	13.8%
Cc1nnc(NC(=O)c2ccc(Br)o2)s1	15.2%
CC(C)N(Cc1ccccc1)C(=O)Cn1c(=O)cnc2ccccc21	0.322%
COc1ccccc1CNC(=O)c1nn(C)c2c1CS(=O)(=O)c1ccccc1-2	12%
Cc1cc(=O)n2[nH]c(N)c(N=Nc3ccccc3)c2n1	1.55%
O=C(c1cc(-c2ccccc2Cl)nc2ccccc12)N1CCOCC1	15.3%
Cl.O=C(CN1CCCCC1)c1ccc2c(c1)OCO2	3.87%
COc1cc2nc3occc3c(OC)c2cc1OC	-3.72%
COc1ccc2[nH]c(C(=O)Nc3ccc4c(c3)OCO4)cc2c1	12.9%
COc1ccc(/C=C2\SC(=S)N(CCC(=O)NCCCn3ccnc3)C2=O)cc1	1.22%
CN1C(=O)c2cccc3c(N)ccc(c23)C1=O	8.82%
CCCOc1ccccc1N/C(=N/c1nc(C)cc(C)n1)NC(=O)Nc1ccc(Cl)cc1	8.59%
CCN(CC)c1nc(C)nc2c1sc(=S)n2C	8.96%
COc1ccc(N/C=C\C(=O)c2ccc3ccccc3c2)cc1	13.8%
COC(=O)N/N=C/c1ccc(OS(=O)(=O)c2ccc(C)cc2)c(OC)c1	5.3%
